# Measurements as given in paper PMC12136788.
# The other results are listed elsewhere or left out.
# B1: chr14:100883974:100884119:-|CDS|ENSG00000254656|unk|FALSE|unique (ssRNA)
# RNA: GGGAGUUCUACAGUCCGACGAUCGUUCUAUAACGACCGUCUGAGAGUUGGCUAUGUCAUCAAUCACCUGUCCGGCUUGGCAUUAGAAUGGGCCAAAGCUCUACUGCAGGAAAACAGCCCCCUGAUCGGAGACUUCCCAGCCUUCAACAGAGGAUUGAGCAUCA
# B2: ENSG00000151025:stop:overlap|stop_codon|ENSG00000151025|stop_codon|NA|stop_codon (ssRNA)
# RNA: GGGAGUUCUACAGUCCGACGAUCUAAGUGCAAAUAAGAUAGCAGGGCCUAGGAAAGAAGAGAUCUGGGAUAGUUUUAAAGUGUAGCAUCUCCAGGAAGAAGAGGAAAAGGAGGGAACCCCGGAUUGGAUAUGAGACAGAAGAUCAACAGAGGAUUGAGCAUCA
# B3: chr11:56417260:56418232:-|CDS|ENSG00000279961|control|control|control (ssRNA)
# RNA: GGGAGUUCUACAGUCCGACGAUCGACAAGAUGGCUUCUGUAUUUUACACAGUGGUGAUCCCCAUGUUAAACCCCCUAAUCUAUAGUCUAAGGAACAAAGAAGUGAAAGAUGCCUCAAAGAAAGCCUUGGAUAAAGGUUGUGAACAACAGAGGAUUGAGCAUCA
# B4: ENSG00000136451:be:win_601|CDS|ENSG00000136451|bound_else_gene|NA|bound_elsewhere_windowed (ssRNA)
# RNA: GGGAGUUCUACAGUCCGACGAUCCCCUUUGAGUGUCCUAUUUGUAAUCAGCGCUUCAAGAGGAAGGACCGGAUGACUUACCAUGUGAGGUCUCAUGAAGGAGGCAUCACCAAACCCUAUACUUGCAGUGUUUGUGGGAAAGGCCAACAGAGGAUUGAGCAUCA
# B5: ENSG00000107863:be:win_1651|CDS|ENSG00000107863|bound_else_gene|NA|bound_elsewhere_windowed (ssRNA)
# RNA: GGGAGUUCUACAGUCCGACGAUCAAAUCUUUUCGAGGUUCCAAUUUUACUGUGGCUCCAAGCGUUGUUAAUUCUGAUAACAGGCGAAUGAGUGGUAGAGGAGUGGGAUCUGUGUCGCAGUUUAAAAAAAUUCCACCAGAUCUACAACAGAGGAUUGAGCAUCA
# B6: chr10:27397735:27399240:-|CDS|ENSG00000182077|control|control|control (ssRNA)
# RNA: GGGAGUUCUACAGUCCGACGAUCUCUUCUAGGCUACCCAGUGUUACAAAGUGCAAUUUCAACAAUAAUAGGGGUGUGUGUUUUAGCUGCAGCGAAAGCAUACAUCUUCAGAACAUUUUUUAAGAUUAUGUUUCUUGUUAUGAUCAACAGAGGAUUGAGCAUCA
# B7: chr1:203340627:203342342:-|three_prime_utr|ENSG00000122176|control|control|control (ssRNA)
# RNA: GGGAGUUCUACAGUCCGACGAUCUGGCUUUUGCUGGAAGGUCCAGGAUGGACCAUGUGACAGAAGUCCACGGGCACCCUCUGUAGUCUUCUUUCCUGUAGGUGGGGUUAGGGGGGGCGAUCAGGGACAGGCAGCCUUCUGCUGCAACAGAGGAUUGAGCAUCA
# B8: chr14:81473690:81473791:-|3pUTR|ENSG00000071537|msi1|FALSE|unique (ssRNA)
# RNA: GGGAGUUCUACAGUCCGACGAUCCAGUGUUUUGGAAGUAUGCAUGCAGGCCUAUAAAUGAAAAACACAAUUCUUUAUGUGUAUAGCAUGUGUAUUAAUGUCUAACUACAUACGCAAAAACUUCCUUUACAGAGGUUCGGACUACAACAGAGGAUUGAGCAUCA
# B9: chr16:70572763:70572864:+|3pUTR|ENSG00000189091|msi1|FALSE|bound_elsewhere (ssRNA)
# RNA: GGGAGUUCUACAGUCCGACGAUCUCUGCAGCACCCAUCUCAGGUGGGUUCCAGAGGGCCUUUAGGGUAUAAUGAGAGCCUGUUAGGUGGAAGAGGCCCAGUUCCAGAAAUGUUCCAGCCCACCCCUGAGAAUUCCUCCUGUUUCAACAGAGGAUUGAGCAUCA
# B10: ENSG00000124766:be:win_3401|3pUTR|ENSG00000124766|bound_else_gene|NA|bound_elsewhere_windowed (ssRNA)
# RNA: GGGAGUUCUACAGUCCGACGAUCCUGUAAGCUUUUAAGAAAAACAAAGUUUUAAACGAAAUACUGCUCUGUCCAGAGGCUUUAAAACUGGUGCAAUUACAGCAAAAAGGGAUUCUGUAGCUUUAACUUGUAAACCACAUCUUUCAACAGAGGAUUGAGCAUCA
# B11: chr15:97973610:97973711:+|3pUTR|ENSG00000140450|unk|FALSE|unique (ssRNA)
# RNA: GGGAGUUCUACAGUCCGACGAUCGGUGCACAAAAUCCUUCUGUGGGCAAAACUUUGUUUUUGUUUUGCACAGUAAGAAACAAUAGGCAAGCGUUAUGUUUUUGGUAAGUUAACUAUGAAAGCUUUCUUAUUUUUAUUAUUAAACAACAGAGGAUUGAGCAUCA
# B12: chr2:121339258:121339359:-|3pUTR|ENSG00000074054|unk|FALSE|unique (ssRNA)
# RNA: GGGAGUUCUACAGUCCGACGAUCUUUUGAGAUUAAUUCUAAUAACGUAUUUGCUAUUGCAGUGCAGAGCCCACUGCAACUGCUAGGACUGAAAGCAGAGGCUGGGUGCCAGAGCACGUGAUUCUUAACAUCAUUUCCACAGACCAACAGAGGAUUGAGCAUCA
# B13: chr16:58973:59127:-|CDS|ENSG00000007384|control|control|control (ssRNA)
# RNA: GGGAGUUCUACAGUCCGACGAUCCAUCUGCUUCCAGAUGACUGUCCUGCGGGACCUGGAGAAGCUGGCAGGCUGGCACCGCAUAGCCAUCAUCUACCUGCUGAGUGGUGUCACCGGCAACCUGGCCAGUGCCAUCUUCCUGCCCAACAGAGGAUUGAGCAUCA
# B14: chr1:33300114:33300153:+|3pUTR|ENSG00000160094|msi1_unk|total|mutant (ssRNA)
# RNA: GGGAGUUCUACAGUCCGACGAUCCCCUGCCCCCAGCCCCCACAGACACACCCCAAUCUGAAAGCCAUGCGUGUCGGUGUAUACCGGAACCAUGUACAGAGCCCAGAGAAGCCCCCUACAUCCCCCCGGGAAAAAAAAGAAAACCAACAGAGGAUUGAGCAUCA
# B15: chr9:35074926:35075082:-|three_prime_utr|ENSG00000221829|control|control|control (ssRNA)
# RNA: GGGAGUUCUACAGUCCGACGAUCUGUGAGCAGGGAUGUAAGUCAGAUGCGGCACUGCAGCAGCUUCGGGCAGCCGCCCUAAUUAGUCGUGGACUGGAAUGGGUAGCCAGCGGCCAGGAUACCAAAGCCUUACAGGACUUCCUCCAACAGAGGAUUGAGCAUCA
# B16: chr1:145912163:145912566:-|CDS|ENSG00000131779|control|control|control (ssRNA)
# RNA: GGGAGUUCUACAGUCCGACGAUCCCCACUUCUGCUAGACGUGGUCAGAAAUGCCUGUGAUCUCUUCAUUCCUCUGGACAAACUAGGCCUCUGGCGCUGUGGCCCUGGGAUUGUGGGGCUUUGUGGCCUCGUGUCCUCCAUCCUCAACAGAGGAUUGAGCAUCA
# B17: chr7:21908192:21908293:-|CDS|ENSG00000164649|msi1|FALSE|unique (ssRNA)
# RNA: GGGAGUUCUACAGUCCGACGAUCUUUUCUAGCGCACGCUUACAGAAUGAGAAAAAAACAAUUCUUGAAAGAAAGAAAGACUGUAGACAGGUGAUACAAAGGGAAGAUUCUACCUCUGAGUCUGAGGAUGACUCUCGGGAUGAGCAACAGAGGAUUGAGCAUCA
# B18: ENSG00000124766:be:win_1301|CDS|ENSG00000124766|bound_else_gene|NA|bound_elsewhere_windowed (ssRNA)
# RNA: GGGAGUUCUACAGUCCGACGAUCUUAACUUCGAGCCCGGCUCCGGCUCGCACUUCGAGUUCCCGGACUACUGCACGCCCGAGGUGAGCGAGAUGAUCUCGGGAGACUGGCUCGAGUCCAGCAUCUCCAACCUGGUUUUCACCUCAACAGAGGAUUGAGCAUCA
# B19: chr17:42842016:42842117:+|3pUTR|ENSG00000131467|msi1|FALSE|unique (ssRNA)
# RNA: GGGAGUUCUACAGUCCGACGAUCUUACUGUUUCUUUCCUCUGUGGGGCAUUGGAUCCUCCCACAGUUGCCCUGGUGAUGACUUAGGGCUUCCCAUCUGUGUACAUCCCACUUUGAAUCUUGAUCGUGACAAGAAAUACCUUAGCAACAGAGGAUUGAGCAUCA
# B20: chr10:22535117:22535218:-|3pUTR|ENSG00000150867|unk|total|mutant (ssRNA)
# RNA: GGGAGUUCUACAGUCCGACGAUCAAGGUACACAUACAUUAUUUGAGUAACUGUUUCCUUGGGGGCCAAUCUGUGUAUGCUUUCCGAAGUUUACAGAAUGCUUUUAUUUUUGUCUAUAACAAACAGUCUGUCAUUUAUUUCUGUCAACAGAGGAUUGAGCAUCA
# B21: chr1:93180074:93180188:-|CDS|ENSG00000117500|unk|FALSE|bound_elsewhere (ssRNA)
# RNA: GGGAGUUCUACAGUCCGACGAUCCUGGCCGCUCUGCCUCCGGUGCUGCUGCCUGGGGCGGCCGGCUUCACACCUUCCCUCGAUAGCGACUUCACCUUUACCCUUCCCGCCGGCCAGAAGGAGUGCUUCUACCAGCCCAUGCCCCAACAGAGGAUUGAGCAUCA
# B22: chr3:149084675:149084859:-|CDS|ENSG00000071794|unk|FALSE|unique (ssRNA)
# RNA: GGGAGUUCUACAGUCCGACGAUCCCAACUUUCUUUCCACGUUUUGAAUUCCAAGAUGUUAUCCCUCCAGAUGACUUUCUAACUAGUGAUGAAGAAGUAGAUUCCGUUUUAUUUGGAAGUUUGAGAGGUCAUGUGGUUGGACUACAACAGAGGAUUGAGCAUCA
# Biological target: T1, UNK ZnF1-6 (called full-length) (human, UniProt Q9C0B0 30-357)
# T1 sequence: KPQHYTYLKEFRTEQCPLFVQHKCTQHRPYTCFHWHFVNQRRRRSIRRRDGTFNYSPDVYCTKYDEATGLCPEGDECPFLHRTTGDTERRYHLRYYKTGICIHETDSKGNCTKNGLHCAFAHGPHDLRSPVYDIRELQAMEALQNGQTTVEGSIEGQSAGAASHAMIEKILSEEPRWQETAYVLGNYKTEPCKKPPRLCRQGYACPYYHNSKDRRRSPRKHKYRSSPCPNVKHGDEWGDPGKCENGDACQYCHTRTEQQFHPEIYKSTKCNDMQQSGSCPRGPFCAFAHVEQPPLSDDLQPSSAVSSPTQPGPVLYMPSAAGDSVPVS
# Assay: nsRBNS (natural sequence RNA bind-n-seq); RBNS binding buffer (assumed for nsRBNS): 25 mM Tris pH 7.5, 150 mM KCl, 3 mM MgCl2, 0.01% Triton X-100, 500 ug/ml BSA, 20 U/ml SUPERase-In, 4 C; UNK is unkempt and MSI1 is Musashi-1; names of the RNAs are library labels; protein concentration not given here; high values mean tight binding
row,Binder,binding signal
1,B1,0.571 enrichment R
2,B2,0.709 enrichment R
3,B3,1.01 enrichment R
4,B4,0.519 enrichment R
5,B5,0.601 enrichment R
6,B6,0.38 enrichment R
7,B7,1.2 enrichment R
8,B8,0.61 enrichment R
9,B9,0.61 enrichment R
10,B10,0.485 enrichment R
11,B11,1.28 enrichment R
12,B12,0.814 enrichment R
13,B13,0.481 enrichment R
14,B14,0.733 enrichment R
15,B15,0.844 enrichment R
16,B16,0.713 enrichment R
17,B17,0.671 enrichment R
18,B18,0.474 enrichment R
19,B19,0.557 enrichment R
20,B20,0.482 enrichment R
21,B21,1.1 enrichment R
22,B22,1 enrichment R
